# Data as given in paper PMC4336329 (PLoS ONE, 2015).
# Hit rate of the full screen: of about 310,000 compounds, about 2,200 (0.71%) showed an effect of 50% or more. The effect is printed as a negative number. The list shows a part of the results.
# Biological target: human ether-à-go-go-related gene (hERG) potassium channel (human, UniProt Q12809)
# Experiment: primary screen, population patch clamp on CHO cells stably expressing hERG
# human ether-à-go-go-related gene (hERG) potassium channel, sequence (Q12809 whole entry, looked up): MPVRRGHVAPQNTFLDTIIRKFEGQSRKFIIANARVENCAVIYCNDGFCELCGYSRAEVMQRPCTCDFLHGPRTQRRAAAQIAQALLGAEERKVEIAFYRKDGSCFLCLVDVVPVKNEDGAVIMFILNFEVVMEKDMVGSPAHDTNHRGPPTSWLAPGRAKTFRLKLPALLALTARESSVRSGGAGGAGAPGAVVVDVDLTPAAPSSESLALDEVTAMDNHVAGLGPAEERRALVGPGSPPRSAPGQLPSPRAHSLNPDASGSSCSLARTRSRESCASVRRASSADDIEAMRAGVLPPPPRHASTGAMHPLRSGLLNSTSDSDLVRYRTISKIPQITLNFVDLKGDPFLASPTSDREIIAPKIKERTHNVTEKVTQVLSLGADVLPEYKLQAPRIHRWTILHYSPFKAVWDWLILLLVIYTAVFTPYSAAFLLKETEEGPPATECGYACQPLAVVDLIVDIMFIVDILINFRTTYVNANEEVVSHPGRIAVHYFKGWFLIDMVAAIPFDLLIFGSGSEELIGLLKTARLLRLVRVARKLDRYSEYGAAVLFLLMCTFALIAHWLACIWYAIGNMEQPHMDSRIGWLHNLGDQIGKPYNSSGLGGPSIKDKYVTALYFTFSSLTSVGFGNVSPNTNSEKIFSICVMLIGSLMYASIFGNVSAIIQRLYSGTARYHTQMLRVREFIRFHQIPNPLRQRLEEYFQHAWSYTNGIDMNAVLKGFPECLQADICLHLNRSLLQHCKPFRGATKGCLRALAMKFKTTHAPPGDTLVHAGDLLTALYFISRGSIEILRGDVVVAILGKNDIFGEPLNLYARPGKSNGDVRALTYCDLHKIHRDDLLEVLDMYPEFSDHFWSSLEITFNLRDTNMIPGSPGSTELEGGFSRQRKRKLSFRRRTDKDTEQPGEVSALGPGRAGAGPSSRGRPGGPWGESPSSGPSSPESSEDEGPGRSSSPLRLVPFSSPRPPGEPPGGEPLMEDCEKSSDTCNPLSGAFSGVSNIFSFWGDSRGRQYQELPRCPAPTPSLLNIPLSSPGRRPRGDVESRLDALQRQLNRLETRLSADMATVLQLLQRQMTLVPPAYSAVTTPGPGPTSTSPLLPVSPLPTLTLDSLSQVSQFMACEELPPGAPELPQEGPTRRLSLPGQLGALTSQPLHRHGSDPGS
row,Compound,"hERG current change (%, negative = inhibition) at 1uM [%]"
1,O=S(=O)(c1cccs1)N1CN(CC2CCCO2)c2nc3ccccc3nc21 (stereo not shown),-0.564
2,O=c1c(O)c(-c2cccs2)oc2ccc(Cl)cc12,0.162
3,COc1ccc(-c2c(-c3cc(OC)cc(OC)c3)n(C)c3ccc(Br)cc23)cc1,13.4
4,CCOP(=O)(Cc1cc(C(=O)CC)c(C)o1)OCC,10.6
5,CCOc1ccc(/C=C2\NC(=S)NC2=O)cc1,8.71
6,CC(C(=O)Nc1ccccc1)C(=O)Nc1ccccc1,14.7
7,Cc1nnc(SCc2nc3sc(C(=O)O)c(C)c3c(=O)[nH]2)s1,14.1
8,COc1nsnc1NS(=O)(=O)c1ccc(NC(=S)NC(=O)c2cccnc2)cc1,17.7
9,CCn1c(=O)cc(SCC(=O)N2CCOCC2)c2ccccc21,-7.86
10,O=C(/C=C/c1ccc(Br)cc1)NC1CCCCCC1,2.33
11,COc1ccc(CC(=O)NC(C)c2ccc3ccccc3c2)cc1 (stereo not shown),9.53
12,COc1cc(C(=O)NC(=S)NNC(=O)c2cnccn2)cc(OC)c1OC,4.57
13,COc1ccc(N(CC(=O)N/N=C/c2ccc3c(c2)OCO3)S(=O)(=O)c2ccc(NC(C)=O)cc2)cc1,17.1
14,O=S(=O)(NC1=NCCC1)c1cccc(NC(=S)NCCc2ccccc2)c1,12.6
15,COc1ccc(-c2cc(C3CCN(c4ncccc4[N+](=O)[O-])CC3)[nH]n2)cc1,4.93
16,COc1ccc(-c2nc(-c3cccc(C)c3)nc(N3CCN(C)CC3)c2C#N)cc1,-5.58
17,CSc1ccccc1NC(=O)Nc1cccc(Cl)c1Cl,17.3
18,Cc1cc(C)nc(SC2CCOC2=O)n1 (stereo not shown),5.32
19,O=c1c2cc(Br)ccc2nc(-c2ccc(Cl)cc2)n1O,16.4
20,COc1cc(NC(=O)N2c3ccccc3Sc3ccccc32)c(C(=O)O)cc1OC,18.4

row,Compound,"hERG current change (%, negative = inhibition) at 1uM [%]"
1,CCCCC(=O)NNC(=O)c1c(O)c2ccccc2[nH]c1=O,6.2
2,CC(C)[C@H](NC(=O)c1ccccc1F)C(=O)NCc1ccc(S(N)(=O)=O)cc1,13.4
3,O=C(CC1SC(=Nc2ccccc2)N(CCO)C1=O)Nc1ccccc1 (stereo not shown),17.5
4,COc1ccc(NC(=O)N2CCCc3ccccc32)cc1,6.82
5,Oc1[nH]c2ccccc2c1N=Nc1ccccc1,11.2
6,CCOC(=O)C(=O)NCC(c1cccs1)S(=O)(=O)c1ccc(Cl)cc1 (stereo not shown),0.903
7,C=CCN1C(=O)c2ccccc2C1(O)Cc1ccccc1 (stereo not shown),13.7
8,COCCn1c(SCc2csc(-c3ccccc3)n2)nc2ccccc21,13
9,O=C(Cc1ncc(C(F)(F)F)cc1Cl)NCc1cccnc1,11
10,CCn1c(=O)n(CC)c2cc(S(=O)(=O)Nc3cc(C)cc(C)c3C#N)ccc21,1.43
11,Cc1nc2ccc(Br)cc2c(=O)n1Cc1cccs1,-7.25
12,O=C1NC(=O)N(c2ccc3c(c2)OCO3)C(=O)/C1=C\c1ccc(-c2ccccc2C(=O)O)o1,11.9
13,Cc1nc(N2CCN(c3ccccc3)CC2)nc2c1C(=O)CC(C)C2 (stereo not shown),16.3
14,CCc1ccccc1NC(=O)CCCSc1nc2ccccc2s1,3.89
15,Cc1cccc(C)c1NC(=O)CN(C)C(=O)c1ccc(NS(=O)(=O)c2ccc3[nH]c(=O)[nH]c3c2)cc1,5.4
16,COc1ccc(NC(=O)c2ccccc2NC(=O)CN2CCCCCC2)cc1,11.8
17,COc1cc(-c2nc(-c3ccccc3)c(-c3cccs3)[nH]2)cc(OC)c1OC,5.41
18,O=S(=O)(CCN1CCSCC1)c1ccccc1,16.2
19,O=c1c(Cc2ccccc2)c(O)nc2n1CCCS2,10.2
20,CC(=O)Nc1ccc(C(=O)OCC(=O)Nc2ccc(N3CCOCC3)cc2)cc1,14

row,Compound,"hERG current change (%, negative = inhibition) at 1uM [%]"
1,CC(=O)N1CCC2(CC1)CC(=O)c1cc(OCC(=O)N3CCN(C)CC3)ccc1O2,4.45
2,CN(C)C1=NC(=O)/C(=C/c2ccc(-c3ccc(S(N)(=O)=O)cc3)o2)S1,14.3
3,COc1cccc(CC2(CO)CCCN(Cc3cc4ccccc4[nH]3)C2)c1 (stereo not shown),6.5
4,O=C(/C=C/c1cccc([N+](=O)[O-])c1)N1CCN(c2ccccc2F)CC1,-1.15
5,CN(CCc1cnn(C)c1)Cc1nc(CC2CC2)no1,-24.3
6,c1cncc(Nc2c3ccccc3nc3ccccc23)c1,-6.9
7,O=C1/C(=C/c2ccccc2)N=C(N2CCOCC2)N1c1cccc(Cl)c1,1.65
8,CCn1ccnc1CN(C)C(=O)c1ccc(OC2CCN(CCc3ccccc3)CC2)cc1,7.17
9,O=C(/C=C/c1ccc(F)cc1)c1ccc(N2CCOCC2)cc1,14.1
10,Cn1cnnc1SCC(=O)Nc1ccc(Br)cc1F,9.52
11,Cc1ccc(CSc2nnc(-c3ccncc3)n2N)cc1,9.8
12,COc1ccc(C(=O)Nc2ccnn2C2CCN(Cc3ccccn3)CC2)cc1,4.42
13,O=C(CCc1ccccc1)NCC1OCCc2ccccc21 (stereo not shown),7.14
14,CC1CN(S(=O)(=O)c2cccc(C(=O)NCCC3=CCCCC3)c2)CC(C)O1 (stereo not shown),0.227
15,O=C(c1cccs1)N(Cc1cc2ccccc2[nH]c1=O)c1ccccc1,-4.14
16,COc1cccc(C(=O)N2CCN(Cc3ccccn3)CC2)c1OC.O=C(O)C(=O)O,-2.57
17,CCN(Cc1ccccc1)S(=O)(=O)c1ccc(F)cc1,12.5
18,COc1ccc2c(CC(=O)OCC(=O)NC(=O)c3cccn3C)coc2c1,7.31
